Source: the supplement of paper PMC11417369
± gives the standard deviation of the averaged measurements. This is one part of the list.

system: PfAP2-EXP AP2 domain (GST-tagged); assay: gcPBM binding intensity (ln(normalized median fluorescence intensity)); higher = stronger DNA binding
How it was run: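 DNA-binding domains from P. falciparum, fused to GST and produced in E. coli, were put on an Agilent 4 × 180k double-stranded probe array for 1 h in 1× PBS holding 1% milk, 0.2 mg/ml BSA, 0.5% salmon testes DNA and 0.03% Triton X-100. Probes were primer-extended, 36 bp long and drawn from intergenic genomic regions, with negative controls included. After Alexa488 anti-GST antibody detection and a 488 nm scan, binding intensity was set as the highest Masliner-normalised natural-log median intensity across replicate spots of either probe orientation.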

Sequence	gcPBM binding intensity (ln)
TCTTGTTAATATATTAAATATATCTATAAATATATA [XGTACX_negctrl_site486]	8.37 ± 0.35
TCTTAAATATATAAATTGAAAAATATAAAAGTAATA [CACACA_negctrl_site1558]	8.37 ± 0.42
AAAACAATATACTGTAGTACTGATGATATATATATA [XGTACX_site7798]	9.61 ± 0.3
ACAATATAGATTAAAAGTACAAATAGTAAATTATAT [XGTACX_site3165]	8.64 ± 0.26
ATAAAAAAAAATAGCACACATAAATATATTATATAT [CACACA_site767]	8.66 ± 0.35
CTACTTATAAATAGAACACACATAAGTGTATTTGTA [CACACA_site3759]	8.23 ± 0.5
AATCATCTCATAAAAATTAATTAGTGTATGTCTTTT [TGCATGCA_negctrl_site416]	8.32 ± 0.35
TAATTATGTATGAACTGTACAGGTTATTTTATTTTA [XGTACX_site5204]	8.38 ± 0.42
TAAAATTTAAATTATACACACTTAAGTAACATCATC [CACACA_site4450]	8.88 ± 0.56
AAAAAATACCTCTATAGTACATATATATAATATTTA [XGTACX_site7222]	8.16 ± 0.29
AAAAAAAATTTATTTGCATGCAAAAAAAAAAAAAAA [TGCATGCA_site67]	9.5 ± 0.23
AAGCCCATTATTAAATGTACAAAATTTTATAAACTA [XGTACX_site7800]	8.46 ± 0.5
TATAGGTATTTATATACACACATATTCTTTTTACAC [CACACA_site6686]	8.47 ± 0.33
CAGTGCCAAATTAGCACACACATATATACATGAATT [CACACA_site2814]	8.54 ± 0.45
TAAAACATATATACAAGTACACAAAGGATATATATA [XGTACX_site3710]	8.79 ± 0.41
GTATATATGTATATATGTACATATATATAATATATT [XGTACX_site56]	8.5 ± 0.16
CACAGTGATATAAAAACACACATGAATTATAATTTC [CACACA_site1667]	8.34 ± 0.49
ATGTAGATAAAACGTGTGCACATGTTTTTTGTTATT	8.77 ± 0.32
TTTTGTTATGGTTTGATGCACTTATATATAAATATT [GTGCAC_site9705]	9.01 ± 0.21

Sequence	gcPBM binding intensity (ln)
ATATATATATATATATGTACTTATTACCAATGTTAG [XGTACX_site1896]	10.1 ± 0.33
ACCCATTTAACAAAATGTACATTATTATAATTACTT [XGTACX_site7105]	8.8 ± 0.48
AAATTTTAAATAGTATGTACGTATGAAATATATATG [XGTACX_site7511]	9.03 ± 0.38
ATTTAAATACAAAATTGTACTTTTCTATATTTAACA [XGTACX_site6146]	8.44 ± 0.41
AAAATTTTACAGAAGGTGCGTATATTTTCCTGCTTA [GTGCAC_site9643]	8.61 ± 0.27
TTTGGAAAAAAATTATTTAAACGATATGAATTGATG [XGTACX_negctrl_site506]	8.44 ± 0.49
CTTACCAAAAGACACACACACACAAGATATATAAAT [CACACA_site6964]	8.77 ± 0.56
AAATTAAAATAAAAATGTACATATAAAGACACAACT [XGTACX_site3132]	9.19 ± 0.45
TACAATATTTTGAGACGTACATATATACATTTACAT [XGTACX_site5880]	8.48 ± 0.31
TGTAAGTCGTTATAAGCACACACATAAATAAAAATA [CACACA_site8448]	8.72 ± 0.56
TATATATATATACCAACACACATACAGATATATATA [CACACA_site5060]	9.91 ± 0.085
TTTATATACAAAAATGCACACGAAAAGTAATATATA [CACACA_site9387]	8.88 ± 0.4
TGAACTTACTTGGACATACACACATATATATATATA [CACACA_site2977]	10.2 ± 0.27
TTTTTTTTTTTTTTTTAACACACATATATATATTTT [CACACA_site8585]	8.3 ± 0.49
ATAAAAGATTTATACATACACACATATTATATTCAC [CACACA_site3714]	8.47 ± 0.44
ATATATATGTATATAACATGCAACATTTAATAATAA [TGCATGCA_site1018]	8.73 ± 0.27
TCATAGCTAGGATAACGTACAGAAAAGTGAAAAATT [XGTACX_site3322]	9.07 ± 0.48
ACACATGTATTTGGTGCATGTTGTTAAAAAAATATT [TGCATGCA_site795]	8.71 ± 0.4
ATTCTAGTAATATATGTATATTTATATATGTATGTG [XGTACX_negctrl_site419]	8.12 ± 0.35

Sequence	gcPBM binding intensity (ln)
TTTTTTTTTTGTTGTTGTACTCTTATATTTTTATAT [XGTACX_site6178]	8.77 ± 0.43
GATCTATTGAGTGATACATGCAGGAAAATTAAAAAC [TGCATGCA_site729]	9.51 ± 0.27
AAAAAGAAAAAAGAAAGTACAAATATACACATTTTT [XGTACX_site3343]	8.28 ± 0.47
TTTTTATTATAAGGTCGTACAATTGTAATTATTGTA [XGTACX_site1413]	8.48 ± 0.35
TATGTATGTATGTATGTATGCATGTCTAACACCTAA [TGCATGCA_site360]	8.73 ± 0.29
TTTTTTTTTTTATGCTCACACATTAATTTTTATACA [CACACA_site4527]	8.63 ± 0.42
AAAAAACACGGACACACACACATATACATACATACA [CACACA_site5470]	9.07 ± 0.3
ATTTATAGAGCTATATGTACATATATATATATTATT [XGTACX_site3704]	8.62 ± 0.4
AATATAAATAATGTTAAACACACATACCGATATATA [CACACA_site8869]	8.52 ± 0.43
AAAAGGTGGAAAAATGCATGCAGGCTATTCTATATA [TGCATGCA_site1034]	9.73 ± 0.16
TTCCACCAATATATATGTACTTATAATATATATATA [XGTACX_site8700]	9.39 ± 0.2
AATTACATATAATACTGTACGCTAATAAGAAAAAAA [XGTACX_site7413]	8.77 ± 0.3
ATATAAATAAAGAAATATATATATATATATATATAT [GTGCAC_negctrl_site668]	10.2 ± 0.88
AACGCTTATTAGTTGTTGTATATGTGTTCACATATT [CACACA_negctrl_site379]	8.49 ± 0.34
TTTTCTATTTAATTGGTGCACTGATATATACACATA [GTGCAC_site9533]	9.52 ± 0.33
ATATAACATATTAATAATATATTTATAATATGTTTA [GTGCAC_negctrl_site168]	8 ± 0.38
AGGTTAAAAATAAATACACACATTTGATGTCTGTAT [CACACA_site6596]	8.15 ± 0.3
TTATGTTATATATACACACACAAAAGAAAAAAAAAA [CACACA_site2987]	8.43 ± 0.56
